Data: PubChem BioAssay AID504706 (National Center for Advancing Translational Sciences (NCATS), 2011)
Hit rate of the full screen: of about 320,000 compounds, about 200 (0.062%) were called active. The shares of active, inactive and inconclusive entries below differ from those in the screen. Calls follow the shape of the dose curve; as a rule, active = well fitted activation curve with a large enough effect; inconclusive = small, poorly fitted or top-dose-only effect; inactive = no such curve, though single readings can be large or run the other way. Potencies of inconclusive entries are left out as doubtful fits.

test: qHTS assay for re-activators of p53 using a Luc reporter; settings: H1299 p53-A138V BP100-luciferase reporter, luminescence, 24 h; series mostly up to 92.2 µM; activity change, positive = activation: at the top concentration; also: nearly all actives have a fitted effect of over 45% in size; as to activity change, positive = activation: % of control where 0% means no effect
Outline: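 p53-null H1299 cells stably carrying temperature-sensitive p53-A138V and a BP100-luciferase reporter were pinned with compounds (4-point, 1:5 series) and held 24 hrs at 37 deg C. Luminescence was read 10 min after detection reagent.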
Potency is read from the fitted curve at half-maximal effect; tags tell the direction and shape of the fitted curve.

Row | Structure (SMILES) | Potency | activity change, positive = activation
1 | COC(=O)c1ccc(NC(=O)Cn2nnc3ccccc32)cc1 | inconclusive [activator, single point] | 
2 | O=C(Nc1nc2ccc(Cl)cc2s1)c1cccc(N2C(=O)CCC2=O)c1 | inconclusive [activator, full curve, poor fit] | 
3 | COc1ccccc1C(=O)NC(=O)COC(=O)CCOc1ccccc1C |  | inactive: 3.69%
4 | NC(=S)C(c1ccccc1)c1ncc(C(F)(F)F)cc1Cl (stereo unspecified) |  | inactive: -3.16%
5 | Cc1ccc(Cl)cc1N1CCN(C(CC(C)C)c2nnnn2CC2CCCO2)CC1 (stereo unspecified) |  | inactive: 1.92%
6 | CCc1ccc(/C=C2/Sc3ccccc3N(CC(=O)NCC3CCCO3)C2=O)cc1 (stereo unspecified) |  | inactive: 13.1%
7 | CCOC(=O)c1sc(NC(=O)CSc2nnc(C(C)C)n2CC)nc1C | inconclusive [activator, single point] | 
8 | N/C(=N\OC(=O)Cc1ccccc1)c1ccc(Br)cc1 | inconclusive [activator, partial curve, poor fit] | 
9 | Cc1cc(N/N=C/c2ccc3c(c2)OCO3)nc2ccccc12 | inconclusive [activator, full curve] | 
10 | Cc1ccc2nc(-c3ccccc3)cn2c1 |  | inactive: -9.82%
11 | COc1ccc(C(=O)OCCc2ccc(O)cc2)cc1 | inconclusive [activator, partial curve, poor fit] | 
12 | CCCC(=O)N1CCN(c2nc3ccc(Cl)cc3s2)CC1 |  | inactive: 11.4%
13 | CCOc1cccc2c1OC(c1cc(OC)c(OC)c(OC)c1)N1N=C(c3ccc(C)o3)CC21 (stereo unspecified) | inconclusive [activator, partial curve, poor fit] | 
14 | O=C(/C=C/c1ccc2c(c1)OCO2)c1ccc(F)cc1 | inconclusive [activator, partial curve, poor fit] | 
15 | CC(=O)N1CC(=O)N=C1SCC(=O)Nc1nc(C)c(-c2ccccc2)s1 |  | inactive: 20.9%
16 | COc1ccc(N2CCN(c3oc(COc4ccccc4)nc3C#N)CC2)cc1 | inconclusive [activator, single point] | 
17 | O=C(Nc1ccc(Cl)c(Cl)c1)c1ccccc1NC(=O)C1CC=CCC1C(=O)O (stereo unspecified) | inconclusive [activator, partial curve, poor fit] | 
18 | O=[N+]([O-])c1ccc(/C=C/c2ccc3ccccc3n2)cc1 | inconclusive [activator, full curve, poor fit] | 
19 | COC(=O)c1c(C)[nH]c(C(=O)/C=C/c2ccccc2)c1C | inconclusive [activator, full curve, poor fit] | 
20 | O=C(CCCOc1ccccc1)Nc1ccc(Cl)cn1 |  | inactive: 6.13%
21 | O=C(NCCN1CCCCC1)c1ccc2c(c1)OCCO2 | inconclusive [activator, partial curve, poor fit] | 
22 | CCC(=O)NC(c1ccc(C)cc1)c1cc([N+](=O)[O-])c2cccnc2c1O (stereo unspecified) | inconclusive [activator, partial curve, poor fit] | 
23 | CC1CCN(C(=O)c2ccc(N3C(=O)c4ccccc4C3=O)cc2)CC1 | inconclusive [activator, single point] | 

Row | Structure (SMILES) | Potency | activity change, positive = activation
24 | Cc1ccccc1N=C1NN=C(c2ccccc2F)CS1 | active: 12.6 µM | 
25 | COCCn1c(SCC(=O)Nc2ccc(C(N)=O)cc2)nc2c([nH]c3ccccc32)c1=O | inconclusive [activator, partial curve, poor fit] | 
26 | OCC[C@H]1C[C@@H](O)[C@H](O)[C@]2(OCc3ccccc32)O1 |  | inactive: -6.89%
27 | CCCOc1ccc(-c2nc(=S)[nH][nH]2)cc1 |  | inactive: 8.83%
28 | Cc1noc(C)c1C(=O)Nc1nc2ccccc2s1 | inconclusive [activator, partial curve, poor fit] | 
29 | O=C(/C=C/c1ccccc1Cl)c1ccc[nH]1 | inconclusive [activator, partial curve, poor fit] | 
30 | Cc1ccc(C)c(C(=O)COC(=O)c2cccc(N3C(=O)c4c(C)nc5ccccc5c4C3=O)c2)c1 | inconclusive [activator, partial curve, poor fit] | 
31 | CC(C(=O)NN=C(c1ccccc1)c1ccccc1)N1CCCC1 (stereo unspecified) |  | inactive: 9.99%
32 | COc1ccccc1NC1=C(C)C(=O)CC1 |  | inactive: -15.1%
33 | O=C(O)Cc1ccc(NC(=O)Nc2ccc3c(c2)OCO3)cc1 | inconclusive [activator, partial curve, poor fit] | 
34 | CCCCN(CC)C(=O)c1cc2cc3ccc(OC)cc3nc2o1 | inconclusive [activator, single point] | 
35 | Cc1cc(C)c(OCC(=O)Nc2ccc(S(=O)(=O)N3CCOCC3)cc2)c(C)c1 |  | inactive: 15.4%
36 | Cc1cccc(NC(=O)c2cc(-c3ccco3)nc3ccccc23)n1 |  | inactive: 12.7%
37 | COc1ccc(OCCSc2ncnc3nc[nH]c23)cc1 | inconclusive [activator, full curve, poor fit] | 
38 | COc1ccccc1-c1c(C)nn2c(N3CCCCCC3)cc(C)nc12 |  | inactive: -13.4%
39 | CC(Oc1cccc(Br)c1)C(=O)NNC(=O)c1ccccn1 (stereo unspecified) | inconclusive [activator, partial curve, poor fit] | 
40 | CSCCC(Nc1nc2ccccc2s1)C(=O)O (stereo unspecified) | inconclusive [activator, partial curve, poor fit] | 
41 | CN1CCN(Cn2cc(/C=C/C(=O)c3ccccc3)c3ccccc32)CC1 | inconclusive [activator, partial curve, poor fit] | 
42 | Cn1cc(Cl)cc(C(=O)Nc2ccccc2)c1=O | inconclusive [activator, full curve, poor fit] | 
43 | Cc1cc(NC(=O)c2cccc(Cl)c2)n[nH]1 | inconclusive [activator, partial curve, poor fit] | 
44 | COC(=O)c1ccc(CNC(=O)CSC(C)C(=O)Nc2cc(C)on2)cc1 (stereo unspecified) |  | inactive: 0.876%
45 | CCO/N=C(\N)c1[nH]ncc1Br |  | inactive: 12.6%
46 | O=C(Nc1ccc(Nc2ccccc2)cc1)Nc1ccccc1Cl | inconclusive [activator, full curve, poor fit] | 
